About 2,200 (0.71%) of roughly 310,000 compounds showed an effect of 50% or more. The effect is printed as a negative number. The list shows a part of the results.
Target: human ether-à-go-go-related gene (hERG) potassium channel (human, UniProt Q12809)
Assay: primary screen, population patch clamp on CHO cells stably expressing hERG

Chain of human ether-à-go-go-related gene (hERG) potassium channel (Q12809 whole entry, looked up): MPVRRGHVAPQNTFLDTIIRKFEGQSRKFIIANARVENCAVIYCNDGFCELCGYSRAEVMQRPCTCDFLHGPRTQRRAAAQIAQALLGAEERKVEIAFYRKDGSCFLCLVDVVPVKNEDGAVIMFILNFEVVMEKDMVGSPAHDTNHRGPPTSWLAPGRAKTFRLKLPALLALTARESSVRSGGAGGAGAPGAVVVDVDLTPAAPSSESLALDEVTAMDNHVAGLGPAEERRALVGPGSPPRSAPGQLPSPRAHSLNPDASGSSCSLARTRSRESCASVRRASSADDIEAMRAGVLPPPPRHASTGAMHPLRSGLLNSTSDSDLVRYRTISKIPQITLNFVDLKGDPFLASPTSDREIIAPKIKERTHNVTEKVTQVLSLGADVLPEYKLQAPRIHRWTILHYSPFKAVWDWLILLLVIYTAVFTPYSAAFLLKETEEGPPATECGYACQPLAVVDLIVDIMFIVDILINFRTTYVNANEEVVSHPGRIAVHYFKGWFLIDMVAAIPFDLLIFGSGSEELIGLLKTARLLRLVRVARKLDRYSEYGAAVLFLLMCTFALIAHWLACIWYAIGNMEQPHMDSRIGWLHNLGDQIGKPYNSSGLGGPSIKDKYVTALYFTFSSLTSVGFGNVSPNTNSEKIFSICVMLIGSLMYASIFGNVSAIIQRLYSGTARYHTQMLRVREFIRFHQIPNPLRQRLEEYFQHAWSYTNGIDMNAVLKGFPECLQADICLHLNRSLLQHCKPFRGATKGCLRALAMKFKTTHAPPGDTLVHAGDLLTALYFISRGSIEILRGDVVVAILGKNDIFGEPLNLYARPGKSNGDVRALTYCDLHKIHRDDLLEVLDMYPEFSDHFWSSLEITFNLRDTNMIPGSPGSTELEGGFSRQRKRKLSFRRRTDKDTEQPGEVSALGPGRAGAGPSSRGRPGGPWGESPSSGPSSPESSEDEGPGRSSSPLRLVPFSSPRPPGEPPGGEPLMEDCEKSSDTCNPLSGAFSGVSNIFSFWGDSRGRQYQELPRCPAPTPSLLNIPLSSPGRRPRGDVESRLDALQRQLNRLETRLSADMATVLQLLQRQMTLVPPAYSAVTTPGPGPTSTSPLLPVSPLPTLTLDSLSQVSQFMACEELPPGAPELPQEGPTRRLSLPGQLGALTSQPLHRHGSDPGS

| SMILES | hERG current change (%, negative = inhibition) at 1uM |
| --- | --- |
| CN(Cc1ccccc1)S(=O)(=O)c1nnc(NC(=O)c2ccccc2F)s1 | -5.25% |
| O=C(NCc1cccs1)C1CCC(CNS(=O)(=O)c2cccs2)CC1 (stereo not drawn) | 13.4% |
| Cc1nc(NCC2CCCO2)c2nnn(Cc3c(F)cccc3Cl)c2n1 (stereo not drawn) | 10.2% |
| CC1CCCCC1NC(=O)COC(=O)Cc1ccc(Cl)cc1 (stereo not drawn) | 13.8% |
| c1ccc2nc(-c3nccs3)ccc2c1 | 1.85% |
| Cc1ccc(-n2nc3c(=O)n(CCCC(=O)N4CCC(C(N)=O)CC4)nc(C)c3c2C)cc1 | 16.5% |
| Cc1ccc(C(=O)NC2CC3CCCC(C2)N3Cc2ccccc2)cc1 (stereo not drawn) | -6.55% |
| COc1ccccc1NC(=S)NCCc1ccccc1 | 3.07% |
| COc1cccc(-c2nnc(-c3ccco3)o2)c1 | 14.6% |
| CCn1cc(C(=O)NC2CCC(C)CC2)c(=O)c2cc(S(=O)(=O)N3CCCCC3)ccc21 (stereo not drawn) | -5.66% |
| Cc1ccc(S(=O)(=O)N2CCN(Cc3ccccc3)CC2)c(C)c1N(C)S(=O)(=O)c1ccccc1 | 10.5% |
| Cc1cc(=O)oc2c(C)c(OC(C)C(=O)NCc3ccccn3)ccc12 (stereo not drawn) | 6.32% |
| CS(=O)(=O)N1CCC(C(=O)Nc2cccc(Cl)c2)CC1 | 13.9% |
| CC1CCCCC1Nc1ncnc2sccc12 (stereo not drawn) | 7.47% |
| CC(=O)c1cccc(NC(=O)Nc2nc(C)cc(C)n2)c1 | 14.8% |
| Cc1ccccc1-n1c(C)cc(/C=C2/C(=O)NC(=O)N(Cc3ccco3)C2=O)c1C | 8.72% |
| C/C(=N/NC(=O)C(C)n1nc(C)c([N+](=O)[O-])c1C)c1ccc(OCC(N)=O)cc1 (stereo not drawn) | 10.5% |
| CC(=O)Nc1ccc(N2CCCCC2)cc1 | 10.6% |
| O=C(COC(=O)c1ccc2c(c1)OCO2)Nc1ccccc1Cl | 6.58% |
| O=c1nc2sc3ccccc3n2c(=O)n1-c1cccc(Cl)c1 | 8% |
| CSc1ccc(CCNS(=O)(=O)c2ccc3c(c2)C(C)(C)C(=O)N3C)cc1 | 6.87% |
| CCC(C)NC(=O)Cn1cnc2sc(C)c(S(=O)(=O)N3CCN(c4ccccc4OC)CC3)c2c1=O (stereo not drawn) | 13.3% |
| CC(C)NS(=O)(=O)c1ccc(NC(=O)c2cccnc2)cc1 | 9.89% |

| SMILES | hERG current change (%, negative = inhibition) at 1uM |
| --- | --- |
| Cc1cc(C)nc(NC2=NCC(=O)N2c2ccc3c(c2)OCCO3)n1 | 9.09% |
| Cc1ccc2c(c1)N(CC(=O)NCCCN1C(C)CCCC1C)C(=O)c1cccnc1O2 (stereo not drawn) | 7.37% |
| CNS(=O)(=O)c1cccc(C(=O)OCC(=O)c2cc(C)n(CC3CCCO3)c2C)c1 (stereo not drawn) | -7.08% |
| CCc1cc(=O)oc2c(C)c(OCC(=O)NCCCN3CCOCC3)ccc12 | 1.14% |
| CCC(C)C(NC(=O)c1ccccc1NC(=O)c1ccco1)C(=O)NNC(=O)c1ccncc1 (stereo not drawn) | 6.17% |
| CN(C)C(CNc1ccc(S(C)(=O)=O)cc1[N+](=O)[O-])Cc1ccccc1 (stereo not drawn) | -5.39% |
| Cc1ccc(S(=O)(=O)c2cc(N3CCOCC3)nc(-c3ccccc3)n2)cc1 | 10.9% |
| CCN(CC)c1ccc(/C=N/O)cc1 | 19% |
| CN(CCC#N)CC(=O)Nc1ccc(S(N)(=O)=O)cc1 | 9.08% |
| CCOC(=O)c1cc(C)[nH]c(=S)c1C#N | -10.6% |
| Oc1ccc(Nc2nc(-c3ccc4ccccc4c3)cs2)cc1 | 4.3% |
| NC(=O)NC1CCCc2c1[nH]c1ccc(Cl)cc21 (stereo not drawn) | 11.2% |
| Cl.OC(COCc1ccccc1)CN1CCN(c2ccccc2F)CC1 (stereo not drawn) | -7.31% |
| C(#CCN1CCOCC1)COCc1ccccc1.Cl | 14.5% |
| CCc1cccc(C)c1N(C(=O)Cn1c(COC)nc2ccccc21)C(C)COC (stereo not drawn) | 2.16% |
| CC1=NN(Cc2ccccc2)C(=O)C1C(c1ccccc1)C(C#N)C#N (stereo not drawn) | 9.32% |
| Cn1c(CNC(=O)c2ccco2)nnc1SCC(=O)Nc1ccccc1Cl | 2.28% |
| Clc1ccc2c(N/N=C/c3ccc(Br)cc3)ccnc2c1 | 18.5% |
| CCn1c2c(c3cc(Br)ccc31)CCC/C2=N\O | 3.59% |
| CCc1ccc(S(=O)(=O)Nc2cccc(-c3ccc4nncn4n3)c2)s1 | 7.31% |
| COc1ccc(CCNC(=O)c2cccc(S(=O)(=O)NC(C)c3ccccc3)c2)cc1 (stereo not drawn) | 5.6% |
| CCN(CC)C(=O)/C=C/c1ccc(OC)c(S(=O)(=O)N2CCCCC2)c1 | 3.26% |

Source: PMC4336329 (PLoS ONE, 2015)
